# Assay results as given in PubChem BioAssay (NCATS).
# Several values for one entry are separate records, joined by “and”; a condition that tells them apart may be missing. Equal values may be shown once. The shares of active, inactive and inconclusive entries below differ from those in the screen. Where the call is inconclusive, the potency comes from a doubtful curve fit. Activity calls are given as the source filed them. Calls come from the whole dose curve; as a rule, active = well fitted inhibition curve with a large enough effect; inconclusive = small, poorly fitted or top-dose-only effect; inactive = no such curve, though single readings can be large or run the other way.
# Experiment: qHTS to identify inhibitors of the type 1 interferon - major histocompatibility complex class I in skeletal muscle: primary screen against the NCATS Mechanism Interrogation Plate v5.0 (MIPE) Libary (AID 1347411); note: nearly all actives have a fitted effect of over 65% in size;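 for activity change, negative = inhibition: plate controls were vehicle for no effect and reference inhibitor for full effect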
# Details: iHSKM cells + IFN-b, HiBiT-tagged MHC-I luminescence, 24 h; activity change, negative = inhibition: at 45.8 µM (top of the series) unless noted
# Summary of the method: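 HLA-B HiBit myoblasts, dexamethasone-free medium + 4 ng/ml IFN-b, 24 h compound, 11-pt 1:3 from 46 uM final. Readout: Nano-Glo HiBiT lytic luminescence after 10 min lysis, RT.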
# Potency is the fitted concentration of half-maximal effect; tags give direction and shape of the fitted curve.
SMILES,Potency,"activity change, negative = inhibition"
C=CC(=O)Nc1cccc(C)c1Nc1ncc2cc(-c3c(Cl)c(OC)cc(OC)c3Cl)ccc2n1,active: 11.7 µM,–
CC1Oc2cc(cnc2N)-c2c(nn(C)c2C#N)CN(C)C(=O)c2ccc(F)cc21 (centres undefined),"inconclusive: 9.3 µM [inhibitor, partial curve]",–
CN1CCN(c2nc(C3=C(c4c[nH]c5ccccc45)C(=O)NC3=O)c3ccccc3n2)CC1,"inconclusive: 18.6 µM [inhibitor, single point]",–
CCCCCCCCCCCCCCCCOCCCOP(=O)(O)COC(CO)Cn1ccc(N)nc1=O (centres undefined),–,inactive: -5.46%
COc1ccc(-c2oc3ncnc(N)c3c2-c2ccc(NC(=O)Nc3cc(C(F)(F)F)ccc3F)cc2)cc1,"inconclusive: 5.87 µM [inhibitor, partial curve]",–
N#Cc1ccc(-c2c(-c3ncn[nH]3)sc(N3CCOCC3)c2C#N)c(F)c1,"inconclusive: 0.415 µM [inhibitor, full curve, poor fit]",–
Cc1[nH]c(/C=C2\C(=O)Nc3ccccc32)c(C)c1CCC(=O)O,"inconclusive: 41.5 µM [inhibitor, single point]",–
C#Cc1cccc(Nc2ncnc3cc4c(cc23)OCCOCCOCCO4)c1,–,inactive: -16%
Cc1cc(Nc2ncnc3ccc(NC4=NC(C)(C)CO4)cc23)ccc1Oc1ccn2ncnc2c1,"inconclusive: 33 µM [inhibitor, single point]",–
C=CC[C@@H]1/C=C(\C)C[C@H](C)C[C@H](OC)[C@H]2O[C@@](O)(C(=O)C(=O)N3CCCC[C@H]3C(=O)O[C@H](/C(C)=C/[C@@H]3CC[C@@H](O)[C@H](OC)C3)[C@H](C)[C@@H](O)CC1=O)[C@H](C)C[C@@H]2OC,–,inconclusive: -47% [inhibitor]
O=c1sn(-c2cccc3ccccc23)c(=O)n1Cc1ccccc1,"inconclusive: 18.6 µM [inhibitor, partial curve]",–
C[C@H]1COCCN1c1cc(C2(S(=O)(=O)C3CC3)CC2)nc(-c2ccc(NC(=S)NCCO)cc2)n1,active: 0.208 µM,–

# Experiment: Primary qHTS for small molecule stabilizers of the endoplasmic reticulum resident proteome: Secreted ER Calcium Modulated Protein (SERCaMP) assay (AID 1508630)
# Details: SH-SY5Y GLuc-SERCaMP (Gaussia luciferase released on ER calcium loss) secretion, thapsigargin, luminescence; activity change, negative = inhibition: at 38.4 µM (top of the series) unless noted
# Summary of the method: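 The SH-SY5Y reporter protocol was run at 3 concentrations up to 38.3 uM (primary) or 11 concentrations (follow-up): 16 h compound, 100 nM thapsigargin for 4 h, then extracellular luciferase luminescence.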
row,SMILES,Potency
1,Cc1cc(F)c(Nc2ncnc3cc(OCc4ccccc4)ccc23)cc1O,"inconclusive: 12.6 µM [inhibitor, single point]"
2,CC[C@H](C)C(=O)O[C@H]1CCC=C2C=C[C@H](C)[C@H](CC[C@@H]3C[C@@H](O)CC(=O)O3)[C@H]21,active: 2 µM
3,Nc1ncnc2c1c(I)cn2[C@@H]1C[C@H](N)[C@@H](O)[C@H]1O,"inconclusive: 1.12 µM [inhibitor, full curve, poor fit]"
4,O=C(O)[C@@H]1C[C@H](CP(=O)(O)O)CCN1,"inconclusive: 31.6 µM [inhibitor, single point]"
5,CNc1cc2c(Nc3cccc(Br)c3)ncnc2cn1,"inconclusive: 1 µM [inhibitor, full curve]"
6,O=S(=O)(NCCNC/C=C/c1ccc(Br)cc1)c1cccc2cnccc12,"inconclusive: 7.08 µM [inhibitor, partial curve, poor fit] and inconclusive: 10 µM [inhibitor, partial curve, poor fit]"
7,Nc1ncnc2c1ncn2[C@H]1O[C@H](CO)[C@@H](O)[C@@H]1O,"inconclusive: 20 µM [inhibitor, single point]"
